According to patent US12721899B2, “Pharmaceutical compositions comprising an anti-claudin 18.2 antibody-drug conjugate and method of use thereof to treat a tumor or cancer” (JIANGSU HENGRUI PHARMACEUTICALS CO., LTD., priority 2020, dated 2026):
Marks after values point to notes of the source that are not given here.

Legend:
[1] = system: NUGC4 cells expressing Claudin18.2 at low levels; experiment: ADCC effect evaluation of antibodies (low expression); assay type: cell-based, human; conditions: in words; low levels (FIG. 3A)
Procedure: (§1) A variety of NUGC4 cells (expressing Claudin 18.2 at high, moderate and low levels) were digested, centrifuged at 1000 rpm, resuspended, and counted. The cells were resuspended at a density of 3×10^5 cells/mL in phenol red-free RPMI 1640 (GIBCO™, 11835-030) supplemented with 10% FBS (New Zealand ultra-low IgG fetal bovine serum, GIBCO™, 1921005PJ). Cells were added to a 96-well plate (CORNING®, 3903) at 25 μL/well (7500 cells/well). An antibody was diluted into the phenol red-free medium to obtain a 3× antibody dilution, which was then added to the cell plate at 25 μL/well. The plate was incubated in a 37° C., 5% CO2 incubator for 0.5 h.
(§2) Effector cells (FcrR3A-V158-NFAT-RE-Jurkat cells) were harvested, centrifuged at 1000 rpm, resuspended, and counted. The cells were resuspended at a density of 3×10^6 cells/mL in phenol red-free RPMI 1640 supplemented with 10% FBS (New Zealand ultra-low IgG fetal bovine serum), and then were added to the plate at 25 μL/well (7.5×10^4 cells/well). The plate was incubated in a 37° C., 5% CO2 incubator for 6 h.
(§3) BRIGHT-GLO™ (PROMEGA™, E2610) was added to the plate at 75 μL/well, and the chemical luminescence was detected using a microplate reader (PerkinElmer, VITOR3).

[2] = system: NUGC4 cells expressing Claudin18.2 at high levels; experiment: ADCC effect evaluation of antibodies (high expression); assay type: cell-based, human; conditions: in words; high levels (FIG. 3C)
Procedure: as §1, §2, §3

[3] = system: NUGC4 cells expressing Claudin18.2 at moderate levels; experiment: ADCC effect evaluation of antibodies (moderate expression); assay type: cell-based, human; conditions: in words; moderate levels (FIG. 3B)
Procedure: as §1, §2, §3

[4] = system: human gastric cancer cells NUGC4 (expressing Claudin18.2 at moderate levels); experiment: In vivo efficacy of ADC molecules, subcutaneous xenograft; design: species or system Balb/c nude mice; conditions: intraperitoneal; for Mean tumor volume (mm^3) D 0: day 0 (baseline); for Mean tumor volume (mm^3) D 32 / % tumor inhibition rate D 32: day 32; for % tumor inhibition rate D 32: p < 0.01 vs. blank control group; for Relative tumor volume D 0: RTV=VT/V0
Procedure: Balb/c nude mice were subcutaneously inoculated at the right flank with human gastric cancer cells NUGC4 (expressing Claudin18.2 at moderate levels) cells (5×10^6, containing 50% matrigel/mouse). The mice were divided into a total of 8 groups of 8 on day 0. The mean tumor volume was about 84.41 mm^3.
Each mouse was intraperitoneally injected with ADC at 0.1 mL/10 g body weight on days 0, 4 and 11, making a total of 3 injections.
Each mouse was intraperitoneally injected with ADC at 0.1 mL/10 g body weight from the day of grouping at intervals of 5 days, and a total of 4 injections were given.
The tumor volumes and body weights were measured twice a week and the results were recorded.
Excel 2003 statistical software was used. The mean values were calculated as avg; the SD values were calculated as STDEV; the SEM values were calculated as STDEV/SQRT; and the inter-group difference P-value was calculated as TTEST.
Tumor volume (V) was calculated as: V=½×Llong×Lshort^2
Relative volume (RTV)=VT/V0
Tumor inhibition rate (%)=(CRTV−TRTV)/CRTV (%) • where V0 and VT are the tumor volume at the beginning of the experiment (the day of first administration is defined as day 0) and the tumor volume at the end of the experiment, respectively; CRTV and TRTV are the relative tumor volumes of the blank control group (Vehicle) and the experimental groups, respectively, at the end of the experiment.

[5] = system: NUGC4-claudin18.2 moderate expression cells; experiment: In vitro cell killing experiment of ADCs (CellTiter-Glo), moderate expression; assay type: cell-based, human; conditions: 6 days
Procedure: CELLTITER-GLO® luminescence cell viability assays were used to test ADC molecules for the in vitro killing effects on the human gastric cancer cell strain in this experiment. On day 1, NUGC4-claudin 18.2 low expression, NUGC4-claudin 18.2 moderate expression and NUGC4-claudin18.2 high expression cells were harvested, adjusted to density 2.5×10^4/mL, and added to a 96-well white transparent plate at 90 μL/well, with about 2500 cells per well. The cells were cultured overnight in a 37° C., 5% CO2 incubator. On day 2, samples were 4× diluted serially from an initial concentration of 5 μM in a U-bottom 96-well plate to obtain 9 concentration points, and the diluted samples were added to the cell plate at 10 μL/well. The cells were cultured at 37° C. with 5% CO2 for 6 days. On day 8, the cell culture plate was taken out, and CELLTITER-GLO® Reagent was added at 50 μL/well. The plate was let stand at room temperature for 2 to 3 min and analyzed on a PHERAstar FS microplate reader for fluorescence readings. Data analysis was performed using GraphPad Prism software.

B1: h1902-5: humanized antibody of mAb1902: light chain L12 (SEQ ID NO: 47), heavy chain H11 (SEQ ID NO: 49) (antibody)
heavy: EVQLVQSGAEVKKPGASVKVSCKASGYTFTSYWMHWVRQAPGQRLEWMGMIHPNSGSTNYNEKFKGRVTITRDTSASTAYMELSSLRSEDTAVYYCARLKTGNSFDYWGQGTTVTVSS[… human IgG1 constant region …]
light: DIVLTQSPDSLAVSLGERATINCKSSQSLLNSGNQKNYLTWYQQKPGQPPKLLIYWASTRESGVPDRFSGSGSGTDFTLTISSLQAEDVAVYYCQNAYTYPFTFGQGTKLEIKRTVAAPSVFIFPPSDEQLKSGTASVVCLLNNFYPREAKVQWKVDNALQSGNSQESVTEQDSKDSTYSLSSTLTLSKADYEKHKVYACEVTHQGLSSPVTKSFNRGEC
modifications: Synthetic Sequence_H11; Synthetic Sequence_L12
ADCC activity [1]: high ADCC activity
ADCC activity [2]: high ADCC activity
ADCC activity [3]: high ADCC activity

B2: h1901-11: humanized antibody of mAb1901: light chain L3 (SEQ ID NO: 41), heavy chain H3 (SEQ ID NO: 44) (antibody)
heavy: EVQLVESGGGLVQPGGSLRLSCAASGFTFSDYGIHWVRQAPGKGLEWIAYISRGSSTIYYADTVKGRFTISRDNAKNSLYLQMTSLRAEDTAVYYCARGGYDTRNAMDYWGQGTTVTVSS[… human IgG1 constant region …]
light: DIVMTQSPDSLAVSLGERATISCKSSQSLLNSGNQKNYLAWYQQKPGQPPKLLIYGASTRASGVPDRFSGSGSGTDFTLTISSLQAEDVAIYHCQNDLYYPLTFGQGTKLEIKRTVAAPSVFIFPPSDEQLKSGTASVVCLLNNFYPREAKVQWKVDNALQSGNSQESVTEQDSKDSTYSLSSTLTLSKADYEKHKVYACEVTHQGLSSPVTKSFNRGEC
modifications: Synthetic Sequence_H3; Synthetic Sequence_L3
ADCC activity [1]: high ADCC activity
ADCC activity [2]: high ADCC activity
ADCC activity [3]: high ADCC activity

B3: ADC-2 (conjugate)
heavy: EVQLVESGGGLVQPGGSLRLSCAASGFTFSDYGIHWVRQAPGKGLEWIAYISRGSSTIYYADTVKGRFTISRDNAKNSLYLQMTSLRAEDTAVYYCARGGYDTRNAMDYWGQGTTVTVSS[… human IgG1 constant region …]
light: DIVMTQSPDSLAVSLGERATISCKSSQSLLNSGNQKNYLAWYQQKPGQPPKLLIYGASTRASGVPDRFSGSGSGTDFTLTISSLQAEDVAIYHCQNDLYYPLTFGQGTKLEIKRTVAAPSVFIFPPSDEQLKSGTASVVCLLNNFYPREAKVQWKVDNALQSGNSQESVTEQDSKDSTYSLSSTLTLSKADYEKHKVYACEVTHQGLSSPVTKSFNRGEC
Mean tumor volume (mm^3) D 0 ([4]; 3 mpk): 84.35 mm^3
Mean tumor volume (mm^3) D 32 ([4]; 3 mpk): 328.95 mm^3
% tumor inhibition rate D 32 ([4]; 3 mpk): 84.45%**
Relative tumor volume D 0 ([4]; 3 mpk): 3.86
Mean tumor volume (mm^3) D 0 ([4]; 10 mpk): 83.93 mm^3
Mean tumor volume (mm^3) D 32 ([4]; 10 mpk): 263.13 mm^3
% tumor inhibition rate D 32 ([4]; 10 mpk): 87.47%**
Relative tumor volume D 0 ([4]; 10 mpk): 3.11
Emax [5]: 82.3
